The source of these data is the supplement of paper PMC9446081.

About 220 (0.56%) of roughly 39,000 compounds showed activity. Some of the results follow.
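Also: static incubation at 37 °C against the wild-type strain, values averaged over two biological replicates.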

The subject of this test is Escherichia coli K-12 BW25113. Description: relative growth (OD600 normalised to plate interquartile mean) (fraction); higher = less growth inhibition, active = 0.2 or less. The note with it: 50 µM; LB; incubation time: overnight (16-24 h).
Consider `COc1ccc(NC(=O)N(C)C[C@@H]2OCCCC[C@@H](C)Oc3ccc(NS(=O)(=O)c4ccc(F)cc4)cc3C(=O)N([C@@H](C)CO)C[C@H]2C)cc1`, for which the relative growth was inactive: 1.03. Under `C[C@@H]1CN([C@@H](C)CO)C(=O)c2cc(-c3cccnc3)cnc2O[C@H]1CN(C)Cc1ccc(-c2ccccc2)cc1` stands inactive: 1.03; under `Cc1noc(C)c1S(=O)(=O)Nc1ccc2c(c1)C(=O)N([C@@H](C)CO)C[C@H](C)[C@@H](CN(C)Cc1ccc(-c3ccccc3)cc1)O2`, inactive: 0.979.

Regarding `C[C@H](CO)N1C[C@H](C)[C@@H](CN(C)C(=O)C2CCOCC2)Oc2cc(-c3ccc(C(=O)N(C)C)cc3)ccc2S1(=O)=O`, the relative growth was inactive: 0.974. In the case of `CCC(=O)Nc1ccc2c(c1)C(=O)N(C)C[C@@H](OC)[C@H](C)CN(Cc1ccc(-c3ccccn3)cc1)[C@H](C)CO2` it was inactive: 0.995. Take `COc1ccc(CN(C)C[C@H]2Oc3ccc(NC(=O)CCN4CCOCC4)cc3C(=O)N([C@@H](C)CO)C[C@@H]2C)cc1`: the relative growth was inactive: 1. Under `CC(=O)N(O)CCCCCNC(=O)CCC(=O)N(O)CCCCCNC(=O)CCC(=O)N(O)CCCCCN` stands inactive: 0.769.

Consider `CC(C)(C)c1cc(C(C)(C)C)n(-c2ccc(-n3cccc3)cc2)n1`, for which the relative growth was inactive: 1.03. With `CO[C@@H]1CN(C)C(=O)c2cc(NC(=O)C3CC3)ccc2OC[C@@H](C)N(C(=O)CN2CCOCC2)C[C@@H]1C`, the relative growth is inactive: 1.01. With `COc1ccc(NC(=O)Nc2ccc3c(c2)C(=O)N([C@@H](C)CO)C[C@H](C)[C@@H](CN(C)C(=O)c2ccccc2)OCCCC[C@H](C)O3)cc1`, the relative growth was inactive: 1.03. In the case of `Cn1cccc1C(=O)NCc1cn2c(n1)CN(S(C)(=O)=O)CC2` it was inactive: 1.01. Take `Cc1ccc(S(=O)(=O)Nc2ccc3c(c2)C(=O)N([C@@H](C)CO)C[C@H](C)[C@@H](CN(C)C(=O)Nc2ccccc2)OCCCC[C@H](C)O3)cc1`: the relative growth was inactive: 1.05. Turning to `N[C@H](CO)C(=O)O`, the relative growth was inactive: 0.998.

Regarding `C[C@@H]1CN([C@H](C)CO)S(=O)(=O)c2ccc(C#CC3(O)CCCC3)cc2O[C@H]1CN(C)C(=O)Cc1cccnc1`, the relative growth was inactive: 1.03. With `COc1ccc(N(C(=O)CSc2ncccn2)[C@@H](C(=O)NCCc2ccccc2)c2cccs2)cc1Cl`, the relative growth is inactive: 1.03. Consider `COc1cccc(Nc2ncnn3ccc(CN4CC[C@@H](N)[C@H](O)C4)c23)c1`, for which the relative growth is inactive: 1.07.

Consider `C[C@@H](O)C#Cc1ccc2c(c1)O[C@@H](CN(C)C(=O)c1ccccc1)[C@@H](C)CN([C@@H](C)CO)S2(=O)=O`, for which the relative growth is inactive: 1.01. On to `C[C@@H]1CN([C@@H](C)CO)C(=O)c2cc(NC(=O)Cc3ccccc3)ccc2O[C@@H](C)CCCCO[C@H]1CN(C)S(=O)(=O)c1ccc(Cl)cc1`, for which the relative growth was inactive: 1.02.

Regarding `O=C(NCCCN1CCOCC1)Nc1ccc(Cc2ccc(NC(=O)NCCCN3CCOCC3)cc2)cc1`, the relative growth was inactive: 0.996.

With `Cc1noc(C)c1NC(=O)Nc1ccc2c(c1)C(=O)N([C@H](C)CO)C[C@H](C)[C@@H](CN(C)C(=O)Nc1ccc3c(c1)OCO3)OCCCC[C@@H](C)O2`, the relative growth was inactive: 0.977. As to `Cc1noc(C)c1NC(=O)Nc1ccc2c(c1)CC(=O)N([C@H](C)CO)C[C@H](C)[C@@H](CN(C)Cc1ccc(Cl)c(Cl)c1)O2`, the relative growth was inactive: 0.986.

In the case of `Cc1ccc(S(=O)(=O)Nc2ccc3c(c2)CC(=O)N([C@@H](C)CO)C[C@H](C)[C@H](CN(C)Cc2ccc(Cl)c(Cl)c2)O3)cc1`, the relative growth is inactive: 1.02. As to `Oc1cccc(-c2nc3ccc4ccccc4c3c3c2CCC3)c1`, the relative growth was inactive: 0.994. Turning to `C[C@@H]1O[C@@H](O[C@H]2[C@H](OC(=O)[C@]34CCC(C)(C)C[C@H]3C3=CC[C@H]5[C@@]6(C)CC[C@H](O[C@@H]7O[C@H](CO)[C@@H](O)[C@H](O)[C@H]7O)C(C)(C)[C@@H]6CC[C@@]5(C)[C@]3(C)C[C@H]4O)OC[C@H](O)[C@@H]2O)[C@H](O)[C@H](O[C@@H]2OC[C@H](O)[C@H](O)[C@H]2O)[C@H]1O[C@@H]1OC[C@@H](O)[C@H](O[C@@H]2OC[C@H](O)[C@H](O)[C@H]2O)[C@H]1O`, the relative growth was inactive: 0.997. `O=C1O[C@@H](c2ccccc2)[C@@H](c2ccccc2)N2[C@@H](c3ccc(OCCO)cc3)[C@]3(C(=O)Nc4ccc(C#CC5=CCCCC5)cc43)[C@@H](C(=O)N3CCN(c4ncccn4)CC3)[C@H]12`: the relative growth is inactive: 1.07. Consider `C[C@H](CO)N1C[C@H](C)[C@H](CN(C)S(C)(=O)=O)Oc2cc(C#Cc3ccccc3)ccc2S1(=O)=O`, for which the relative growth is inactive: 1.02.

With `COCC(=O)Nc1ccc2c(c1)C(=O)N(C)[C@@H]1CC[C@@H](CC(=O)N3CCc4ccccc4C3)O[C@@H]1CO2`, the relative growth is inactive: 0.989. Under `C[C@H]1CCCCO[C@H](CN(C)S(=O)(=O)c2ccc(Cl)cc2)[C@@H](C)CN([C@@H](C)CO)C(=O)c2cc(NC(=O)Nc3cccc4ccccc34)ccc2O1` stands inactive: 0.988; under `C[C@@H]1CN([C@@H](C)CO)C(=O)c2cc(NC(=O)Nc3ccccc3)ccc2O[C@@H]1CN(C)C(=O)Nc1cccc2ccccc12`, inactive: 1.03. Turning to `Nc1cnc2ncc(N)cc2c1`, the relative growth was inactive: 0.988.

Take `C[C@H](CO)N1C[C@H](C)[C@H](CN(C)Cc2ccc(Oc3ccccc3)cc2)Oc2ccc(NS(=O)(=O)c3ccc(F)cc3)cc2CC1=O`: the relative growth is inactive: 1.01.

In the case of `CC(C)NC(=O)N(C)C[C@@H]1OCCCC[C@H](C)Oc2ccc(NC(=O)C3CCCCC3)cc2C(=O)N([C@@H](C)CO)C[C@H]1C`, the relative growth was inactive: 0.978. On to `C[C@H](CO)N1C[C@H](C)[C@H](CN(C)S(=O)(=O)c2cccs2)Oc2c(NS(C)(=O)=O)cccc2C1=O`, for which the relative growth is inactive: 0.987. On to `C[C@@H]1CCCCO[C@@H](CN(C)CC2CC2)[C@H](C)CN([C@@H](C)CO)C(=O)c2cc(NS(C)(=O)=O)ccc2O1`, for which the relative growth is inactive: 0.976. As to `C[C@H]1CN([C@@H](C)CO)C(=O)c2cc(N(C)C)ccc2O[C@@H]1CN(C)S(=O)(=O)c1ccc(Cl)cc1`, the relative growth was inactive: 1. On to `C[C@H](CO)N1C[C@H](C)[C@@H](CN(C)Cc2ccc3c(c2)OCO3)OCCCC[C@H](C)Oc2ccc(NC(=O)CCC(F)(F)F)cc2C1=O`, for which the relative growth was inactive: 1.01. For the compound `COc1ccc(NC(=O)Nc2ccc3c(c2)C(=O)N([C@H](C)CO)C[C@H](C)[C@H](CN(C)CC2CCCCC2)OCCCC[C@H](C)O3)cc1`, the relative growth is inactive: 0.98. On to `CN1CC(=O)NC1=N`, for which the relative growth is inactive: 0.974. Regarding `CCS(=O)(=O)N1C[C@]2(CN(Cc3cc(ccc3F)F)[C@@H](CO)c3c2c2ccc(cc2n3C)OC)C1`, the relative growth is inactive: 1.02. `O=C(N/N=C/[C@H](O)[C@@H](O)[C@H](O[C@@H]1O[C@H](CO)[C@H](O)[C@H](O)[C@H]1O)[C@H](O)CO)c1ccccn1`: the relative growth was inactive: 1.01. `C[C@H](CO)N1C[C@H](C)[C@@H](CN(C)C(=O)Nc2cccc3ccccc23)OCCCC[C@H](C)Oc2ccc(NC(=O)CCC(F)(F)F)cc2C1=O`: the relative growth is inactive: 1.02. Regarding `COCC(=O)N1CC[C@]2(CC1)CN([C@H](CO)c1c2c2ccc(cc2n1C)OC)C(=O)CN1CCOCC1`, the relative growth is inactive: 1.

For the compound `O=C(C[C@H]1CC[C@H](NC(=O)CN2CCOCC2)[C@H](CO)O1)NC1CCC1`, the relative growth is inactive: 0.998. Under `COCCNC(=O)C[C@H]1C[C@@H]2c3cc(NC(=O)COC)ccc3O[C@@H]2[C@@H](CO)O1` stands inactive: 0.996.

For the compound `C[C@@H]1CCCCO[C@H](CN(C)S(=O)(=O)c2cccs2)[C@H](C)CN([C@@H](C)CO)C(=O)c2cc(NC(=O)Cc3ccccc3)ccc2O1`, the relative growth is inactive: 1.01. `C[N+](C)(C)CCCCCCNC(=O)[C@H]1C[C@H]2C(=O)N[C@@H](Cc3ccccc3)C(=O)N2[C@H]1c1ccc(O)cc1`: the relative growth is inactive: 1.01.

As to `Cc1ccc(S(=O)(=O)N(C)C[C@H]2Oc3ccc(NC(=O)c4ccncc4)cc3CC(=O)N([C@@H](C)CO)C[C@@H]2C)cc1`, the relative growth is inactive: 0.99. For the compound `C[C@H](CO)N1C[C@H](C)[C@H](CN(C)Cc2ccc(Oc3ccccc3)cc2)Oc2ccc(NS(=O)(=O)c3ccc(Cl)cc3)cc2CC1=O`, the relative growth is inactive: 0.996. For `Cc1cn(-c2cc(NC(=O)c3ccc(C)c(Nc4nccc(-c5cccnc5)n4)c3)cc(C(F)(F)F)c2)cn1`, the relative growth is inactive: 0.812. Take `C[C@H]1CN([C@@H](C)CO)C(=O)CCCn2cc(nn2)CO[C@H]1CN(C)C(=O)Nc1cccc(Oc2ccccn2)c1`: the relative growth is inactive: 0.982. Regarding `CCC(=O)N1Cc2cc(C(=O)Nc3nccs3)nc(-c3cccc(-c4ccccc4OC)c3)c2[C@H]1CCO`, the relative growth was inactive: 1.01. Under `C[C@@H]1CCCCO[C@@H](CN(C)C(=O)NC2CCCCC2)[C@@H](C)CN([C@H](C)CO)C(=O)c2cc(NS(=O)(=O)c3ccccc3)ccc2O1` stands inactive: 1.02; under `COc1ccc(S(=O)(=O)N(C)C[C@H]2OCCCC[C@H](C)Oc3ccc(NC(=O)Nc4cccc5ccccc45)cc3C(=O)N([C@@H](C)CO)C[C@H]2C)cc1`, inactive: 1.04; under `C[C@H]1CN([C@@H](C)CO)S(=O)(=O)c2ccc(Br)cc2O[C@@H]1CN(C)C(=O)C1CCOCC1`, inactive: 1.02. In the case of `COc1ccc(S(=O)(=O)Nc2ccc3c(c2)C(=O)N([C@@H](C)CO)C[C@H](C)[C@@H](CN(C)Cc2ccc(Cl)c(Cl)c2)OCCCC[C@@H](C)O3)cc1` it was inactive: 0.949. With `Cc1ccc(S(=O)(=O)N(C)C[C@H]2Oc3cc(C#Cc4ccncc4)ccc3S(=O)(=O)N([C@H](C)CO)C[C@H]2C)cc1`, the relative growth is inactive: 1.01.

On to `C[C@@H]1CCCCO[C@H](CN(C)Cc2ccccc2)[C@@H](C)CN([C@@H](C)CO)C(=O)c2cc(NC(=O)c3ccccc3)ccc2O1`, for which the relative growth was inactive: 1.01.
